Source: the supplement of paper PMC3334620
Over roughly 33,000 sequences, “E-score (-0.5 to 0.5)” has its median near -0.043; the highest 2% begin near 0.37. This is one part of the list.

biological target: T1, Upc2 (UniProt Q12151); experiment: PBM E-score (8-mer binding enrichment) (E-score (-0.5 to 0.5)); higher = stronger / more preferred TF binding; most listed sequences are background and not binding sites; details: protein concentration: 200 nM; construct: GST-full length
T1 sequence: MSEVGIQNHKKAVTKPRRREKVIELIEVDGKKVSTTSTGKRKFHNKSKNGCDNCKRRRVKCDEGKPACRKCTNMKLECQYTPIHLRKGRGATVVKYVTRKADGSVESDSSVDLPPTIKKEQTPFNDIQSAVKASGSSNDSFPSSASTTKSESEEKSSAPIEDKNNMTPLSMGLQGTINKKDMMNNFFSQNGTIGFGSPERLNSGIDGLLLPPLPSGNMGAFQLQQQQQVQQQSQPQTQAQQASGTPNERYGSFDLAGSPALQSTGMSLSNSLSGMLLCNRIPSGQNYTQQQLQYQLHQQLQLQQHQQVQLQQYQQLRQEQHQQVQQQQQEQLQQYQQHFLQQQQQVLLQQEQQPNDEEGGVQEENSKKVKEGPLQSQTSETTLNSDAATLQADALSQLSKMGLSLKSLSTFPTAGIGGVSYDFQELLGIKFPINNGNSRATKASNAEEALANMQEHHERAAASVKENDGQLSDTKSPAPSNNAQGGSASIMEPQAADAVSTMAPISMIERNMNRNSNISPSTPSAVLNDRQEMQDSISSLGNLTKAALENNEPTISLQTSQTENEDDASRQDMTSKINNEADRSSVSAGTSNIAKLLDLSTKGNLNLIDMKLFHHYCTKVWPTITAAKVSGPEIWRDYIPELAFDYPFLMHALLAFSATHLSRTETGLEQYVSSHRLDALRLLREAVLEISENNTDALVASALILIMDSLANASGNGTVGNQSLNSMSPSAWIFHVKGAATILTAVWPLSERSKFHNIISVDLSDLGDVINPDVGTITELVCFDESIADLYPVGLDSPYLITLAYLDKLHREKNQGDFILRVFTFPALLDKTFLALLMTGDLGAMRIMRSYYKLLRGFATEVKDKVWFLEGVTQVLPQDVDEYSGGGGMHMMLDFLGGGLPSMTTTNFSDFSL
In short: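 Masliner-normalised scans of fluorescent anti-GST signal were the basis for scoring. That signal came from GST-tagged yeast transcription factors applied at about 100-200 nM to double-stranded universal all-10-mer Agilent arrays on fresh or once-stripped slides. Each ungapped eight-base word, pooled with its reverse complement, received an E-score from the Universal PBM Analysis Suite.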

Sequence | PBM E-score
TTAATCAA | -0.00222
CCGAGACC | 0.0331
GTACTATA | 0.172
GGGAAACC | -0.0204
AAATCCGG | 0.0202
GAACCGAA | 0.249
AAGTTGAC | -0.0173
CATCACCC | -0.233
GGAGCAAC | -0.153
ACAGCGCT | 0.128
CAAAAGCA | 0.0182
GTGAAAAC | -0.0279
AGCGAAGC | 0.188
CTAAACAA | -0.156
ATCCCCCG | -0.047
ACCAACCT | -0.00069
CGAGGGGA | 0.275
CGTTAATC | 0.313
AGGTAAAT | -0.0588
CGGGGCTC | 0.0719
GGTGATAA | -0.0686
GGGAATAC | 0.0625
GGATGCCA | -0.287
GGTCAGTA | 0.0222
ACAGTCTA | 0.0492

Sequence | PBM E-score
CCACTTGA | -0.0806
TAGCACTA | -0.239
GCTATTAC | 0.109
ATCTCTGA | -0.252
CCTAACCG | 0.19
CAAAACGG | 0.0742
GCTCTTCC | -0.203
AAACCGAC | 0.168
ACTTGAAG | -0.124
ATTCATCG | 0.0233
CGTGCCGC | 0.152
ACACTGAG | -0.17
TCATAAAA | -0.0566
CCGCGGGC | -0.239
CTAAATGA | -0.233
AAGCCCTC | -0.0182
AAAGTGGT | -0.073
ACACATAC | 0.0349
ATCAAGCC | 0.0113
GGACTGAA | -0.158
CCAGTGTC | -0.137
AGCGGTTC | -0.0168
ACACCTAA | 0.0608
ACGGAATG | -0.026
CAGAAACA | 0.0123

Sequence | PBM E-score
GCAAACTA | -0.0021
AATCCGAT | 0.0689
AGCGATGC | 0.176
GCGTGGCC | -0.153
ATTGGTAA | -0.111
ACAGATGA | -0.0657
AACACCCT | -0.191
ACGGGGAA | 0.23
AAACCAGA | -0.0146
CTTCATCC | -0.177
AGAATCAT | -0.0914
CTCGAGCA | -0.0107
CGGCCTTA | -0.0891
ACAAGTGC | -0.11
GAAATATA | 0.127
CAAGAGAG | -0.125
CGCCTGTC | -0.0785
CAGTCAGG | -0.185
ATCGTCAG | -0.224
CTACTGCA | -0.135
ATCACTGA | -0.109
CAGGCCGG | -0.197
ACGAAATA | 0.362
GCCGTACC | 0.379
TAGATACA | -0.00949

Sequence | PBM E-score
AAGGCGTC | -0.134
AACCACAG | -0.212
GTCGAGGA | -0.226
ACCATGCC | -0.252
CCCTCATC | -0.0575
CTGTAAAG | -0.0138
CATGCGAA | 0.14
CAGTCCGA | -0.176
CCGTGGAG | -0.212
CCTGCCCA | -0.36
ATTGTGAG | -0.196
AATAGACG | 0.0504
CCTCGCAG | -0.14
ACGCCAAT | 0.201
CCTATAGC | -0.286
ACGTCATA | 0.0692
AACTGCCA | -0.0631
AGCGCATA | 0.0812
CGCTCAGA | 0.121
CCTTCGGA | 0.154
AGCATACG | 0.353
ATCCCACG | -0.166
CTTAGGTC | 0.0323
CTCACTAA | -0.0103
CTAATATC | -0.0311

Sequence | PBM E-score
GCCAGATA | -0.0886
ACCATCAA | -0.0348
CCGTCAGC | -0.231
AACGGTCA | 0.188
GCAGGGCC | -0.114
CGACTTTC | 0.0358
GCACAGTA | 0.0761
CATGGGAC | -0.193
CGCAAGAA | 0.109
CCGAGACG | 0.179
AACTGCCG | 0.026
GCAAGAAA | -0.107
ATCGTATC | 0.426
AATACCGG | -0.153
AGTCCTTG | -0.224
GATGGCAA | 0.00691
GGACGGAC | -0.0787
TAAAGCTA | -0.0839
CGCCGCTA | -0.0277
AGTGCCCA | -0.137
GATTAGAC | -0.0209
GCACATGC | -0.2
GGTGCTAC | -0.18
CCGGATTA | -0.208
AGCGGACC | -0.0433

Sequence | PBM E-score
CTGTCGCA | 0.0616
ATAACGGC | 0.123
ATTGCTTA | -0.0541
ACCAGAAT | -0.00733
ACACATCG | 0.093
CATAAACG | 0.462
GGCGTCAA | -0.153
ACCCGCAT | 0.0404
ATTTTGTG | -0.0311
CCACAGCG | -0.302
GCCCGCCA | -0.144
CAGCTTAG | -0.256
ATTTGCAC | -0.0529
ATACTCAC | 0.0254
CGTACATC | 0.352
ATGAGGGG | -0.299
GAGTAAGC | -0.176
CACAATGG | -0.089
CATCATTA | -0.0416
TTATATAA | 0.0964
GAGCATGC | -0.248
AGCGGCGG | 0.101
AGCATATA | 0.0134
CGCCCCAG | -0.162
CCTTGATC | -0.241

Sequence | PBM E-score
ACATGAAG | -0.15
CCAACTGC | -0.118
ACAGCGGA | -0.212
AAGCGGGA | -0.0154
CACCGAGA | -0.124
AACCGCAC | -0.00368
CTCTACAA | -0.0244
GGGTCAGA | -0.0313
AGATACAA | 0.0173
ACGGGGCT | 0.0759
CTAATCAG | -0.0725
GTTGATTA | 0.0537
CAGCACAA | 0.0156
ACAAGAAC | 0.152
CCGCCATC | -0.248
TATCTACA | -0.0779
GAGGTAAC | -0.0391
CGCGGCCA | -0.215
GTAGCTTA | 0.112
CATCCTCC | 0.0461
AGAACTTG | -0.0432
AATGGCTG | -0.0827
AAGCCAGC | -0.115
CTTCTATC | -0.158
CCGGCCTA | -0.0726

Sequence | PBM E-score
CAACCCTA | -0.0238
ATAGTCGC | 0.093
CGTGGCTC | -0.0748
ATGTGAGA | -0.26
ATTACTCG | 0.151
ATACTGTG | 0.0426
ATCATTAC | -0.00039
CCGCATTC | -0.132
ACCACTCA | -0.0387
CCTCGCCC | 0.127
AGAGTTTC | -0.154
GAACCCTA | 0.042
CAGGAGTA | -0.157
CGGATTTC | 0.00143
TCAGGGGA | -0.218
AAATCTCG | 0.21
AGTCCCAT | -0.163
TCTGTCCA | -0.242
CAGTGAGG | -0.344
GGTTCGAA | 0.0921
CCTCTCAA | -0.206
CCCCGCAA | 0.0809
CCACCTTC | -0.0912
ATGTGCGC | -0.0671
CAGTGGAG | -0.16

Sequence | PBM E-score
CGGCTTCA | -0.0262
AGGCGTAG | -0.272
CGCTCGGC | 0.0396
CCCGACCA | -0.0401
ACAAGCAG | -0.19
CACTTGCG | -0.173
ACGGACGT | 0.116
CAATTGCA | -0.0211
GATGAGCA | -0.186
AATAGAAA | -0.156
CACAAAGC | -0.142
GTCCGCAC | -0.113
ACGTTACA | 0.0891
AACAGCGG | -0.068
TCTCGAAA | 0.159
CGGGCTAG | -0.117
GGTGGAAC | 0.184
TGCGGAAA | -0.00475
CACTAGAG | -0.186
